Screen size: about 230,000 compounds; about 3,600 (1.6%) were called active. Inconclusive results, whose numbers are uncertain, are shown with a selection of clear calls. Calls follow the shape of the dose curve; as a rule, active = well fitted inhibition curve with a large enough effect (not every such curve was filed as active); inconclusive = small, poorly fitted or top-dose-only effect, or another doubt; inactive = no such curve, though single readings can be large or run the other way. Potencies of inconclusive entries are doubtful fits and often do not repeat.
Biological target: Lysine-specific demethylase 4E (Homo sapiens) (UniProt B2RXH2)
Sequence of UniProt B2RXH2 (B2RXH2 whole entry, looked up, the tested form may be a part): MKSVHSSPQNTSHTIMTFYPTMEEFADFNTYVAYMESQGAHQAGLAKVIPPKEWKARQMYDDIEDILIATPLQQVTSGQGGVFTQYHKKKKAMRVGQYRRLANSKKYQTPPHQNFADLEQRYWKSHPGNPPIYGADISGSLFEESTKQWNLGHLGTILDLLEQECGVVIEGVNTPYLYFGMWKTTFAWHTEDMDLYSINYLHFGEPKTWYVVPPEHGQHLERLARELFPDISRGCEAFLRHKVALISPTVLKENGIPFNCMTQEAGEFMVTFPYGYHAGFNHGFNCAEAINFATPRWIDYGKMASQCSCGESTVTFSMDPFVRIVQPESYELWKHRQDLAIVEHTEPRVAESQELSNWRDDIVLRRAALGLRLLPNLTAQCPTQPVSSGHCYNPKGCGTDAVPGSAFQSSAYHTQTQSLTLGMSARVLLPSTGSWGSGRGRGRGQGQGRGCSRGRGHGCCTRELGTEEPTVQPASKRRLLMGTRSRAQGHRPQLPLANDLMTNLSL
Assay: qHTS Assay for Inhibitors of Human Jumonji Domain Containing 2E (JMJD2E)
Settings: JMJD2E catalytic domain, FDH-coupled NADH fluorescence (FDH is formaldehyde dehydrogenase); series mostly up to 57.1 µM; activity change, negative = inhibition: at the top concentration
Also: nearly all actives have a fitted effect of over 50% in size.
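For activity change, negative = inhibition in this document: 0% = wells with enzyme and -100% = buffer wells without enzyme.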
Potency is read from the fitted curve at half-maximal effect; tags tell the direction and shape of the fitted curve.

Structure (SMILES) | Potency | activity change, negative = inhibition
COc1ccc(N2CCN(C(=O)c3cn(C)c(=O)c4c3c3ccccc3n4C)CC2)cc1 | inconclusive: 25.1 µM [inhibitor, single point] | –
CCOc1cc(/C=C2/NC(=O)N(Cc3ccccc3F)C2=O)ccc1O | inconclusive: 39.8 µM [inhibitor, single point] | –
O=C(O)c1ccc(NC(CSCc2ccccc2F)C(=O)O)c([N+](=O)[O-])c1 (centres undefined) | – | inactive: -4.37%
COc1ccccc1N1CCN(c2nc(C)nc3c2oc2ccccc23)CC1 | inconclusive: 35.5 µM [inhibitor, partial curve] | –
CCC1=C/C(=C\c2ccc3c(c2)OCO3)C(=O)S1 | inconclusive: 35.5 µM [inhibitor, single point] | –
C[C@H](O)[C@@H]1C(=O)N2C(C(=O)O)=C(SCCN=CN)C[C@@H]12 | inconclusive: 14.1 µM [inhibitor, single point] | –
O=[N+]([O-])c1ccc(-c2ccc(/C=N/c3c(-c4ccco4)nc4ccccn34)o2)c(Cl)c1 | inconclusive: 20 µM [inhibitor, partial curve] | –
O=C(CCN1CCc2ccccc2C1)c1ccc2c(c1)OCCO2 | – | inactive: -5.93%
O=C(O)c1cc(N/N=C/c2ccc(OCc3ccccc3)cc2)ccc1Cl | – | inactive: -2.56%
COc1ccc2c(c1)C(C)=CC(C)(C)N2C(=O)CNCc1ccc2c(c1)OCO2 | inconclusive: 35.5 µM [inhibitor, single point] | –
CCOc1cc(/C=C/C(=O)O)ccc1OCc1ccccc1 | inconclusive: 35.5 µM [inhibitor, single point] | –
C=CCOC(=O)C1=C(C)NC2(O)c3ccccc3C(=O)C12O (centres undefined) | – | inactive: 5.46%
CCOc1c2ccc(C(=O)NCc3ccc(OC)cc3)cc2nn1CCOC | inconclusive: 31.6 µM [inhibitor, partial curve] | –
CCc1c2c(nc3cccc(SC)c13)COC2 | inconclusive: 28.2 µM [inhibitor, partial curve] | –
CCOC(=O)c1cccc(Nc2nc(C)cc(C)n2)c1 | inconclusive: 39.8 µM [inhibitor, single point] | –
S=c1[nH]nc(-c2ccc3ccccc3n2)n1-c1ccccc1Cl | – | inactive: 3.87%
COc1ccccc1NC(=O)N(Cc1cccs1)Cc1cc2cc3c(cc2[nH]c1=O)OCO3 | inconclusive: 31.6 µM [inhibitor, partial curve] | –
COc1ccc(-c2cc3nc4c(c(N5CCC6(CC5)OCCO6)n3n2)CCC4)cc1 | inconclusive: 28.2 µM [inhibitor, single point] | –
Cc1cc(Cl)ccc1N1C(=O)CC(NNC(=O)c2cccnc2)C1=O (centres undefined) | – | inactive: 4.76%
Cn1c(=O)c2c(nc(NCC3CCCO3)n2C)n(C)c1=O (centres undefined) | inconclusive: 35.5 µM [inhibitor, single point] | –
Cn1c(N)c(S(=O)(=O)c2ccc(Br)cc2)c2nc3ccccc3nc21 | inconclusive: 31.6 µM [inhibitor, partial curve] | –
COc1ccc(CNc2nc(-c3ccoc3)nc3ccccc23)c(OC)c1 | inconclusive: 35.5 µM [inhibitor, single point] | –

Structure (SMILES) | Potency | activity change, negative = inhibition
C=CCn1c(-c2ccc(N)cc2)nc2ccccc21 | inconclusive: 28.2 µM [inhibitor, partial curve] | –
CNc1oc(-c2cccs2)nc1C#N | inconclusive: 31.6 µM [inhibitor, partial curve] | –
O=C(c1ccc2ccccc2c1)C1CCCN(C(=O)CCn2cnnn2)C1 (centres undefined) | inconclusive: 31.6 µM [inhibitor, partial curve] | –
COc1cc(/C=C2/SC(=S)N(c3c(C)n(C)n(-c4ccccc4)c3=O)C2=O)ccc1O | – | inactive: 5.45%
Clc1ccc(-n2ncc3c(NCCN4CCOCC4)ncnc32)cc1 | inconclusive: 39.8 µM [inhibitor, single point] | –
O=C1C2CC=CCC2C(=O)N1CC1CCCO1 (centres undefined) | – | inactive: 14.3%
O=C(Nc1cccc(Cl)c1)c1cc(N=Nc2ccc([N+](=O)[O-])cc2Cl)ccc1O | – | inactive: -15.8%
Cc1c(C(=O)Oc2cccc3cccnc23)oc2ccccc12 | inconclusive: 20 µM [inhibitor, partial curve] | –
COc1cc(/C=N/NC(=S)N/N=C/c2cc(OC)c(OC)c(OC)c2)cc(OC)c1OC | – | inactive: 2.67%
Cc1[nH]c2ccccc2c1Cc1nnc(SCc2ccccc2)o1 | – | inactive: -6.84%
COC(=O)c1[nH]c2ccccc2c1NC(=O)CCN1CCSCC1 | inconclusive: 39.8 µM [inhibitor, single point] | –
CCSc1nnc(NC(=O)CC)s1 | – | inactive: -13.1%
CCOc1c2ccc(C(=O)NCc3cc(C(F)(F)F)cc(C(F)(F)F)c3)cc2nn1C | inconclusive: 35.5 µM [inhibitor, partial curve] | –
CC1(C)Cc2c(sc3nc(-c4cccs4)n(N)c(=O)c23)CO1 | – | inactive: -9.01%
Cc1nn(-c2cccc(Cl)c2)c2nc(-c3ccncc3)cc(C(=O)N3CCOCC3)c12 | inconclusive: 28.2 µM [inhibitor, partial curve] | –
C#CCOCCOCCOCCNc1nc(N2CCN(C(=O)[C@H](Cc3ccc(O)cc3)n3cc([C@@H](N)CC(C)C)nn3)CC2)nc(N2CCN(C(=O)[C@H](Cc3cc4ccccc4[nH]3)n3cc([C@@H](N)CC(C)C)nn3)CC2)n1 | inconclusive: 39.8 µM [inhibitor, single point] | –
O=C(CSc1nccc(=O)[nH]1)Nc1ccc(Br)c(Cl)c1 | – | inactive: 2.38%
COc1cc([N+](=O)[O-])ccc1NC(=O)Nc1ccc2c(c1)OCCO2 | – | inactive: -4.74%
Cc1ccc(NC(=O)c2ccc(NCC3CCCO3)c([N+](=O)[O-])c2)cc1Cl (centres undefined) | inconclusive: 0.794 µM [inhibitor, full curve, poor fit] | –
CNC(=S)NNC(=O)c1cccn(Cc2ccc(Cl)cc2Cl)c1=O | inconclusive: 28.2 µM [inhibitor, single point] | –
O=C(N=C1N=C2C=CC=CN2Cc2ccccc21)c1ccc(S(=O)(=O)N2CCCC2)cc1 | inconclusive: 39.8 µM [inhibitor, single point] | –
Cc1nc(S/C(=C/c2ccc(-c3cc(Cl)ccc3C)o2)C(=O)O)n[nH]1 | active: 5.01 µM | –

Source: PubChem BioAssay AID2147 (National Center for Advancing Translational Sciences (NCATS), 2009)
